± gives the standard deviation of the averaged measurements. The list shows a part of the results.

This note sets out measurements from the supplement of paper PMC11417369.

In this experiment the test system is PfAP2-I AP2 domain 3 (GST-tagged). Nature of the experiment: gcPBM binding intensity (ln(normalized median fluorescence intensity)); higher = stronger DNA binding. Put shortly:
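After 1 h on an Agilent 4 × 180k array of primer-extended double-stranded 36-bp intergenic genomic probes and negative controls, bound GST-tagged P. falciparum DNA-binding domains were detected with Alexa488 anti-GST antibody and scanned at 488 nm. The domains had been expressed in E. coli, and binding took place in 1× PBS with 1% milk, 0.2 mg/ml BSA, 0.5% salmon testes DNA and 0.03% Triton X-100. Binding intensity is the highest Masliner-normalised natural-log median intensity across replicate spots of either probe orientation.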
On to “TATATTTATTTATATACACACATATTTATAAATATA [CACACA_site7047]”, for which the “gcPBM binding intensity (ln)” value turned out to be 7.74 ± 0.5.

For “CAAAATTGACATGACGCACACAAGTGTAGATATTTT [CACACA_site1250]”, the “gcPBM binding intensity (ln)” value came out at 7.97 ± 0.67.

Take “TAGTTGTTTATAACACGTTGACAGAAATGTTATGTA [GTGCAC_negctrl_site624]”: the “gcPBM binding intensity (ln)” value was 7.85 ± 0.72.

Regarding “TATGTGGCACAAAAGGGTACATATAATTTATACAGG [XGTACX_site5499]”, the “gcPBM binding intensity (ln)” value worked out at 8.78 ± 0.28.

For the sequence “TGTGTACCGATATTAAGTTTAACGTTATAAAAATAT [CACACA_negctrl_site1547]”, the “gcPBM binding intensity (ln)” value is 7.89 ± 0.53.

As to “AAACAGAATGCATATACACACATACAAAAAAGTGCA [CACACA_site6591]”, the “gcPBM binding intensity (ln)” value was found to be 9.05 ± 0.88.

In the case of “AAAGGACAAAAAAATGCATGCCGTTAAATTATGTAC [TGCATGCA_site512]”, the “gcPBM binding intensity (ln)” value is 7.78 ± 0.83.

On to “TTTCTAAACCGGTACAGTACATATAAAAATAGAATA [XGTACX_site6662]”, for which the “gcPBM binding intensity (ln)” value worked out at 7.99 ± 0.42.

On to “AGTGTATTTTTATGTTGTACATGTAATATTTTTGAT [XGTACX_site541]”, for which the “gcPBM binding intensity (ln)” value was 7.87 ± 0.43.

As to “CTTTTTTTTTAAATATCACACACATATAATATATTC [CACACA_site9222]”, the “gcPBM binding intensity (ln)” value amounted to 7.54 ± 0.61.

As to “TAATTCATCATATGCACACACAATACCAAAATGTGC [CACACA_site191]”, the “gcPBM binding intensity (ln)” value is 9.04 ± 0.18.

Consider “TACAGATATTCATATAAACACACATACAAATTATGT [CACACA_site7929]”, for which the “gcPBM binding intensity (ln)” value was 7.58 ± 0.69.

With “TATATAATATATTAATGTACGTTATATGTATTCCTT [XGTACX_site6140]”, the “gcPBM binding intensity (ln)” value turned out to be 7.78 ± 0.47.

Consider “TTTCCCTACCAAAAATGTACTTATAAGCGTTTTTAT [XGTACX_site739]”, for which the “gcPBM binding intensity (ln)” value came to 7.88 ± 0.63.

Take “AAAAAAAAAAAACACACACACACACTAATACATACA [CACACA_site8135]”: the “gcPBM binding intensity (ln)” value is 7.92 ± 0.45.

For the sequence “TTTTTAAATTATTGCACACAAAAATGAAAGGAAAAA [CACACA_site1455]”, the “gcPBM binding intensity (ln)” value came to 10.1 ± 0.6.

Consider “CTAAAAATCTTTTGTTGTACTTTTAGATAATCAGGA [XGTACX_site3968]”, for which the “gcPBM binding intensity (ln)” value was 7.5 ± 0.6.

As to “TACATATTTATATACACACACACCGTCCGTGTTAAA [CACACA_site7413]”, the “gcPBM binding intensity (ln)” value came to 7.91 ± 0.47.

As for “AAAGGGATGTTCATTCTTTTTTTTTTTTTTGTATAT [CACACA_negctrl_site511]”, the “gcPBM binding intensity (ln)” value was 7.16 ± 0.6.

“AAGTAAAAAAATAGCACACACACAAAAACACAGACA [CACACA_site4839]”: the “gcPBM binding intensity (ln)” value came to 8.44 ± 0.18.

For “TATATTTTTTTTGTGCGTACATACCATTTTAATAAT [XGTACX_site2751]”, the “gcPBM binding intensity (ln)” value was found to be 8.71 ± 0.16.

With “CACAAACAAAAACACACACACACACCCACAAAAATG [CACACA_site2429]”, the “gcPBM binding intensity (ln)” value was found to be 8.29 ± 0.057.

Turning to “ATTGGGTACAAATACACACACATATAAATATTAATA [CACACA_site7173]”, the “gcPBM binding intensity (ln)” value was determined as 8.01 ± 0.19.

“TATTATTTTATGAATACACACATATACGAAAATATT [CACACA_site964]”: the “gcPBM binding intensity (ln)” value was found to be 7.66 ± 0.52.

Turning to “AATTATTGTATGCTATACGTTCCCCTCTAATTTATC [CACACA_negctrl_site1052]”, the “gcPBM binding intensity (ln)” value stood at 7.82 ± 0.92.

With “TATTTTTATATAATGTGTACTTATACCTTATTTTTT [XGTACX_site1658]”, the “gcPBM binding intensity (ln)” value amounted to 7.76 ± 0.52.

On to “AAAAAAAAAAAAAAAACACACAATAAAGTAAAATTT [CACACA_site135]”, for which the “gcPBM binding intensity (ln)” value is 8.73 ± 0.54.

As for “ATATATAAATTTTAGTGTACATTAATTTTTTTTTTT [XGTACX_site7782]”, the “gcPBM binding intensity (ln)” value turned out to be 7.74 ± 0.42.

Regarding “TAAATATATTAAGCTTGTACATGAAAAAAAAAAAAA [XGTACX_site3264]”, the “gcPBM binding intensity (ln)” value stood at 8.1 ± 0.59.

As for “AGTCTGAATAAAATTACACACATATACATATATATA [CACACA_site1780]”, the “gcPBM binding intensity (ln)” value amounted to 8.09 ± 0.76.

For the sequence “TATGTATATAAATTAACACACATATGTGGTTAATAG [CACACA_site3143]”, the “gcPBM binding intensity (ln)” value was 7.8 ± 0.52.

On to “TACCTTTTTTGTTTTATGCACACCATATAACCAAGG [CACACA_site30]”, for which the “gcPBM binding intensity (ln)” value was found to be 10.3 ± 0.33.

Consider “TAAAAAAAAAAAAAAGCATGCTATATTATATTACAC [TGCATGCA_site241]”, for which the “gcPBM binding intensity (ln)” value is 7.92 ± 0.5.

In the case of “TTTTTTTTTCCGTGTTGTACAAAAAAAAAGATTTTG [XGTACX_site3925]”, the “gcPBM binding intensity (ln)” value amounted to 8.09 ± 0.54.

Turning to “AAGAAATATTTATACACACACACAAACATATAAATA [CACACA_site6981]”, the “gcPBM binding intensity (ln)” value stood at 8.05 ± 0.47.

In the case of “TATAACTATTCACAGACATGCACATAATAACAATAA [TGCATGCA_site207]”, the “gcPBM binding intensity (ln)” value came out at 8.37 ± 0.57.

“TATATATATATAGACACACACACACCCATATATATA [CACACA_site4117]”: the “gcPBM binding intensity (ln)” value was 9.295 ± 0.007.

For the sequence “TATAACTATAAAAGTAGTACACATATATATTATATA [XGTACX_site1391]”, the “gcPBM binding intensity (ln)” value turned out to be 8.02 ± 0.092.

In the case of “TTTTTTTAAATATACACACACATTTATACCTATATA [CACACA_site7572]”, the “gcPBM binding intensity (ln)” value is 7.93 ± 0.49.

As to “TTCCTAATTGACAACACACACAACAAAAAAGGGATT [CACACA_site1279]”, the “gcPBM binding intensity (ln)” value was determined as 8.07 ± 0.66.

Regarding “AATGGTTTAAAATACTGTACATATATATAAAAGTAA [XGTACX_site6187]”, the “gcPBM binding intensity (ln)” value amounted to 7.91 ± 0.54.

Regarding “CACTAAAATAAACACACACACACACCGATATATATA [CACACA_site9379]”, the “gcPBM binding intensity (ln)” value was 8.24 ± 0.68.

As for “TTAATTTTATTTTTTTGTACACATAAATATTATAAA [XGTACX_site4680]”, the “gcPBM binding intensity (ln)” value came to 8.02 ± 0.34.

Turning to “CTTGTCATTTTGCACACACACATGTATAGGTTATTA [CACACA_site7431]”, the “gcPBM binding intensity (ln)” value is 9.9 ± 0.17.

Regarding “TATATTTATATGATAACACACATAAATTATACATTT [CACACA_site1671]”, the “gcPBM binding intensity (ln)” value turned out to be 7.47 ± 0.45.

On to “AAAATAATAATTAATACATGCATTAATTCTTTTTTT [TGCATGCA_site741]”, for which the “gcPBM binding intensity (ln)” value worked out at 7.47 ± 0.71.

With “ACTTCATTTTTTTTATGTACACAGAAGATTTACAAA [XGTACX_site4021]”, the “gcPBM binding intensity (ln)” value was 8.44 ± 0.47.

With “AGGAAAATAGAAAAAGCACACATATATTTTGGAATG [CACACA_site8080]”, the “gcPBM binding intensity (ln)” value was determined as 7.99 ± 0.64.

Regarding “ATTTATTTATTTTTTTGTACGAATGTTGCACATATA [XGTACX_site4101]”, the “gcPBM binding intensity (ln)” value was determined as 8.67 ± 0.099.

As for “CATATATTATTTAATAGTACATATAAAAGAAAAAAA [XGTACX_site4643]”, the “gcPBM binding intensity (ln)” value is 7.78 ± 0.34.

For “TATATAAATAAATGTGTACACACATTAAAATCAAAC [CACACA_site8733]”, the “gcPBM binding intensity (ln)” value is 8.2 ± 0.2.

With “TATATACATATATATACACACATATATATATTTTAT [CACACA_site3788]”, the “gcPBM binding intensity (ln)” value stood at 7.54 ± 0.49.

As to “GAAATAATTGTTAAAGGTACACAATGCATATACAAT [XGTACX_site238]”, the “gcPBM binding intensity (ln)” value came out at 8.04 ± 0.64.

Regarding “ATAATATATACTAAAAGTACATATTATAATAAATTA [XGTACX_site6749]”, the “gcPBM binding intensity (ln)” value was 7.3 ± 0.27.

For “GAATGAAAATAAAATTGTACACATATCTATATCTAT [XGTACX_site2642]”, the “gcPBM binding intensity (ln)” value is 7.67 ± 0.46.

On to “TTTAATTAGGATAATTGTACTGAACTAAGTATATTT [XGTACX_site1871]”, for which the “gcPBM binding intensity (ln)” value turned out to be 7.59 ± 0.59.

Consider “AAAAAAAAAAAAAGTTGTACATTATTTTCCTAATTC [XGTACX_site7998]”, for which the “gcPBM binding intensity (ln)” value was 7.76 ± 0.56.
